Out of some 360,000 compounds screened, about 6,000 (1.7%) were called active. This list was built around the results that the source calls inconclusive (neither active nor inactive); the mix of calls is not that of the screen. Calls come from the whole dose curve; as a rule, active = well fitted cell-killing curve with a large enough effect; inconclusive = small, poorly fitted or top-dose-only effect, or effect the other way; inactive = flat fitted curve, though single readings scatter. Potencies beside an inconclusive call are fits to weak or partial responses and may not hold up.
test: qHTS for induction of synthetic lethality in tumor cells producing 2HG: qHTS for the HT-1080-NT fibrosarcoma cell line; settings: HT-1080-NT fibrosarcoma viability, CellTiter-Glo ATP luminescence, 48 h; activity, negative = less viability: at 46.1 µM (top of the series) unless noted;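 note: NT is the 2HG producing partner of a matched IDH1 knockdown line; nearly all actives have a fitted effect of over 55% in size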;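 for activity, negative = less viability: 0% = DMSO-treated cells and -100% = media-only wells without cells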
Summary of the method: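 Viability by CellTiter-Glo luminescence after 48 h compound exposure at 37C of HT-1080-NT cells (750/well, RPMI, 5% FBS). % activity scaled between DMSO wells and medium-only wells, then curve-fitted and categorized by curve class.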
Potency is the fitted concentration of half-maximal effect; tags give direction and shape of the fitted curve.

Row | Structure (SMILES) | activity, negative = less viability | Potency
1 | Cc1oc(-c2ccccc2Cl)nc1CSc1nc2c(c(=O)[nH]1)CCCC2 | inactive: 5.8% | 
2 | O=S(=O)(CC(CN1CCCCC1)N1CCCCC1)c1ccccc1 (stereo not given) |  | inconclusive: 20.6 µM [cytotoxic, partial curve, poor fit]
3 | COc1cccc(NC(=O)CN(C)C(=O)/C=C/c2ccc3ccccc3n2)c1 | inactive: -7.03% | 
4 | O=C(C1CCN(S(=O)(=O)c2ccccc2F)CC1)N1CCN(Cc2ccc3c(c2)OCO3)CC1 | inactive: -11.3% [at 9.24 µM] | 
5 | Clc1ccc(-c2nc3ccc(Cl)cn3c2Cc2cccc(Cl)c2)cc1 |  | inconclusive: 29.1 µM [cytotoxic, single point]
6 | Cc1onc(-c2c(Cl)cccc2Cl)c1C(O)c1ccccc1 (stereo not given) | inactive: -3.56% | 
7 | CC(C)n1cc(CN2CCC(C(=O)Nc3cccc(-c4cccc(Cl)c4)c3)CC2)cn1 |  | active: 18.4 µM
8 | O=C(COC(=O)CNS(=O)(=O)c1ccc(Cl)cc1)NC1CCCCC1 | inactive: 14.9% | 
9 | CCc1nc2ccc(C(=O)NC3CCN(Cc4ccccc4)CC3)cn2c1N(C)Cc1ccc(N(C)C)cc1 | inactive: -24.4% | 
10 | COc1cccc2cc(C(=O)OC(C)C(=O)c3ccc(C)cc3)c(=O)oc12 (stereo not given) | inactive: 19.2% | 
11 | O=C(CSc1nc(C2CC2)nc2c1cnn2-c1ccccc1)Nc1c[nH]c(=O)[nH]c1=O | inactive: -28.6% | 
12 | COc1ccc(-c2cc(N)n(S(=O)(=O)c3c(F)c(F)c(F)c(F)c3F)n2)cc1OC |  | active: 7.08 µM
13 | CN(C(=O)Cn1cc(C#N)c2ccccc21)c1ccccc1 | inactive: -2.13% | 
14 | CC(=O)Nc1ccccc1C(=O)N1CC2(C)CC1CC(C)(C)C2 (stereo not given) | inactive: 8.28% | 
15 | Cc1[nH]n(-c2ccccc2)c(=O)c1/C=N/N1C(=O)c2ccc3c4c(ccc(c24)C1=O)CC3 |  | inconclusive: 8.2 µM [cytotoxic, partial curve]
16 | CCCN1CCC(N2CCN(c3cccc(C(F)(F)F)c3)CC2)CC1 | inconclusive: 0.976% [cytotoxic] [at 9.24 µM] | 
17 | COc1cc(C)c(S(=O)(=O)NOCc2ccccc2)c(C)c1C | inactive: -3.74% | 
18 | CCCC(=O)N1CCOCC1c1cc(C(=O)Nc2ccccc2)no1 (stereo not given) |  | inconclusive: 23.1 µM [rising, partial curve]
19 | O=C(O)C1CSC(c2coc3ccccc3c2=O)N1 (stereo not given) | inactive: -28.8% | 
20 | Cc1ccc(/C=C/C(O)=C2/C(=O)N(C)C3(C)CC2c2ccccc2O3)cc1 (stereo not given) |  | inconclusive: 18.4 µM [cytotoxic, single point]
21 | Cc1cccc(C(=O)N2CCCC(c3nc(-c4ccc(F)cc4)no3)C2)c1 (stereo not given) |  | inconclusive: 11.6 µM [cytotoxic, partial curve]
22 | CC1(C(=O)Nc2cccc(Oc3ccccc3)c2)Cc2c(-c3ccccc3)ccnc2O1 (stereo not given) |  | inconclusive: 23.1 µM [cytotoxic, single point]
23 | COc1ccccc1Cc1c(C(C)(C)C)nc2c3ccccc3ccn12 |  | inconclusive: 9.2 µM [cytotoxic, partial curve]

Row | Structure (SMILES) | activity, negative = less viability | Potency
24 | CCN(C(=O)COC(=O)CCCOc1ccc(Cl)cc1C)c1c(N)n(Cc2ccccc2)c(=O)[nH]c1=O |  | inconclusive: 29.1 µM [cytotoxic, single point]
25 | O=c1ccc(N=Nc2ccccc2)ccc1O |  | inconclusive: 13 µM [cytotoxic, single point]
26 | CCCCCOC(=O)Nc1ccc(S(=O)(=O)Nc2cccc([N+](=O)[O-])c2)cc1 |  | inconclusive: 29.1 µM [cytotoxic, single point]
27 | O=C(O)CCCN1C(=O)c2cccc3cccc(c23)C1=O |  | inconclusive: 29.1 µM [cytotoxic, single point]
28 | O=c1[nH]sc2ccccc12 |  | inconclusive: 23.1 µM [cytotoxic, single point]
29 | COC(=O)c1ccc(CSc2ccccc2NC(=S)Nc2cccc(SC)c2)o1 |  | inconclusive: 1.46 µM [cytotoxic, full curve, poor fit]
30 | O=C(c1ccco1)N1CCC(n2nnc3ccccc32)CC1 |  | inconclusive: 20.6 µM [rising, single point]
31 | COc1ccc(NC(=O)Cc2nc3ccccc3[nH]2)cc1 |  | inconclusive: 29.1 µM [cytotoxic, single point]
32 | COc1cc([N+](=O)[O-])cc(/C=N/NC(=O)Cn2cncn2)c1O |  | inconclusive: 32.6 µM [cytotoxic, single point]
33 | COc1ccccc1CNc1nc(NC(C)C)nc2ccsc12 |  | inconclusive: 29.1 µM [cytotoxic, single point]
34 | Cc1ccc(S(=O)(=O)Nc2cccc3c2O[C@H](CN(C)Cc2ccccc2)[C@@H](C)CN([C@H](C)CO)C3=O)cc1 | inactive: 19% | 
35 | Cc1cccc(NC(=S)NC2CC3CCCC(C2)N3CC(C)C)c1C (stereo not given) | inactive: 6.47% | 
36 | COc1ccc(-c2cc(C(=O)Nc3ccc(C(N)=O)cc3)c3ccccc3n2)cc1 |  | inconclusive: 18.4 µM [cytotoxic, single point]
37 | Cc1c(Cc2ccccc2)c(=O)oc2cc(OCC(=O)NCC(O)c3ccccc3)ccc12 (stereo not given) |  | inconclusive: 20.6 µM [cytotoxic, single point]
38 | COc1ccc(-c2nn(-c3ccccc3)cc2C(=O)NC(=S)NNC(=O)c2ccncc2)cc1 |  | inconclusive: 8.2 µM [cytotoxic, partial curve]
39 | CN(CCOc1ccc(Cl)cc1)C(=O)c1cccc(S(=O)(=O)N2CCN(c3ccc(F)cc3)CC2)c1 |  | inconclusive: 5.8 µM [cytotoxic, full curve]
40 | COc1ccc(N2CCN(C(=O)Cc3nn(C)c(=O)c4ccccc34)CC2)cc1 | inactive: -0.724% | 
41 | N#CCSc1nnc(COc2cccc3ccccc23)n1-c1cccc(Cl)c1 |  | inconclusive: 13 µM [cytotoxic, partial curve]
42 | COc1cc(NC(=O)CSc2nc(C3CC3)nc3ccccc23)cc(OC)c1 |  | active: 13 µM
43 | Cc1ccc(C(=O)C2=C(O)C(=O)N(Cc3cccnc3)C2c2ccc(N(C)C)cc2)o1 (stereo not given) | inconclusive: 30% | 
44 | C=C1C(=O)c2sccc2C(c2ccc(OC)c(OC)c2)C1COC(C)=O (stereo not given) |  | active: 2.59 µM
45 | O=C(/C=C/c1cccc([N+](=O)[O-])c1)NC(=S)Nc1cccc(NC(=O)c2ccccc2Cl)c1 |  | inconclusive: 29.1 µM [cytotoxic, single point]

Source: PubChem BioAssay AID686970 (National Center for Advancing Translational Sciences (NCATS), 2013)
